Out of some 390,000 compounds screened, about 1,400 (0.36%) were called active. Inconclusive means that the source gave no clear call. Such entries were picked first, then a sample of the others. The call rests on the fitted dose curve; in most records, active means well fitted inhibition curve with a large enough effect; inconclusive means small, poorly fitted or top-dose-only effect; inactive means no such curve, though single readings can be large or run the other way. Potencies beside an inconclusive call are fits to weak or partial responses and may not hold up.
Target: Flap endonuclease 1 (Homo sapiens) (UniProt P39748)
Sequence of UniProt P39748 (P39748 whole entry, looked up): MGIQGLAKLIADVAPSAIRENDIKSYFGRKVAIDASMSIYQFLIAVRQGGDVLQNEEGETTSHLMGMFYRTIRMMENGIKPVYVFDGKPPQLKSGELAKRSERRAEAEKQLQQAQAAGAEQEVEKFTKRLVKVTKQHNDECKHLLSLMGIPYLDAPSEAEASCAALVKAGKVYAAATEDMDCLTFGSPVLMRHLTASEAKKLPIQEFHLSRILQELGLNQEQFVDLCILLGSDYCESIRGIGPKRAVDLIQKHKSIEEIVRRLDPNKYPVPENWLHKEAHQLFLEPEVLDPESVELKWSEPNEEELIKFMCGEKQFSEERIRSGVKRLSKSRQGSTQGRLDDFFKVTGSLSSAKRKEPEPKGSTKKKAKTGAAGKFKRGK
Assay: qHTS Assay for the Inhibitors of Human Flap endonuclease 1 (FEN1). Further: nearly all actives have a fitted effect of over 65% in size.
Details: Recombinant FEN1 flap cleavage, fluorescence, 15 min; series mostly up to 114 µM; activity change, negative = inhibition: at the top concentration
How it was run: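 Quantitative HTS format: each compound was titrated, incubated with 10 nM nuclease for 15 min at room temperature, then challenged with flap substrate at 50 nM final. Signal change over 15 min gave concentration–effect curves.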
On the % scale 0 is the no-effect control and ±100 the full control effect; potency means the concentration at half of the fitted maximal effect; tags describe the fitted curve by direction and shape.

| SMILES | Potency | activity change, negative = inhibition |
| --- | --- | --- |
| COc1ccc(Cl)cc1N(CC(=O)NC1CC2CCC1C2)S(=O)(=O)c1ccccc1 (stereo unspecified) | inconclusive: 89.1 µM [inhibitor, partial curve, poor fit] | – |
| CCOC(=O)CC1C(=O)NCCN1c1nc2c(C)cccn2c(=O)c1/C=C1\SC(=S)N(C(C)CC)C1=O (stereo unspecified) | inconclusive: 56.2 µM [inhibitor, partial curve, poor fit] | – |
| CC(O)CNc1nc2sc3c(c2c(=O)n1CCc1ccccc1)CCCCC3 (stereo unspecified) | inconclusive: 89.1 µM [inhibitor, partial curve, poor fit] | – |
| O=C(N/N=C/c1cccc2ccccc12)c1ccncc1 | – | inactive: -0.311% |
| Cc1cc(Nc2ccc(Cl)cc2)nc(N)n1 | – | inactive: -5.73% |
| O=c1cc(-c2ccc(O)cc2)oc2cc(O)cc(O)c12 | inconclusive: 10.6 µM [inhibitor, partial curve, poor fit] | – |
| Cc1ccc(NC2=C/C(=N\S(=O)(=O)c3cccs3)c3ccccc3C2=O)c(C)c1 | – | inactive: -13.6% |
| O=C(Nc1ccc(F)cc1)C(c1ccccc1)N1CCN(CC(=O)N2CCOCC2)CC1 (stereo unspecified) | – | inactive: 15.1% |
| O=C1CC[C@@H]2C[C@@]3(C[C@@H]4CCN1[C@H]24)Nc1cc([N+](=O)[O-])ccc1NC3=NCc1ccccc1 | inconclusive: 89.1 µM [inhibitor, partial curve, poor fit] | – |
| CC(C)n1c(=O)c2c(O)cc(=O)oc2c2ccccc21 | inconclusive: 7.94 µM [inhibitor, full curve] | – |
| O=C1Oc2ccccc2C(=O)/C1=C\N1CCN(c2ccccc2)CC1 | – | inactive: -11.4% |
| CC(C)(C)OC(=O)N1CCN(/[N+]([O-])=N/Oc2ccc([N+](=O)[O-])cc2[N+](=O)[O-])CC1 | inconclusive: 22.4 µM [inhibitor, partial curve, poor fit] | – |
| CC(NC(=O)c1ccccc1NC(=O)CSc1nnnn1C)c1ccccc1 (stereo unspecified) | – | inactive: 7.53% |
| C#CCOCCOCCOCCNc1nc(N2CCN(C(=O)[C@H](CCCCN)n3cc(CCCC)nn3)CC2)nc(N2CCN(C(=O)[C@H](Cc3ccc(O)cc3)n3cc(CCO)nn3)CC2)n1 | inconclusive: 89.1 µM [inhibitor, single point] | – |
| O=C(NC1CC1)c1ccc2nc(-c3ccco3)c(-c3ccco3)nc2c1 | active: 11.2 µM | – |
| O=C(OC1CCN(c2ncc(C(F)(F)F)cc2Cl)CC1)c1ccc(Cl)cc1 | – | inactive: -24.6% |
| COC(=O)c1c(NC(=O)CN2C(=O)NC3(CCC(C)CC3)C2=O)sc2c1CCC2 (stereo unspecified) | – | inactive: 3.44% |
| Nc1c(S(=O)(=O)O)cc(NC(=O)c2ccccc2)c2c1C(=O)c1ccccc1C2=O | inconclusive: 15.8 µM [inhibitor, full curve, poor fit] | – |
| O=C(O)c1ccc(CSc2nc3ccc(NC(=O)c4ccccc4C(=O)O)cc3s2)cc1 | inconclusive: 89.1 µM [inhibitor, single point] | – |
| CCOc1ccc(CNC(=O)c2ccc3c(c2)c(C)c(C)n3Cc2ccccc2)cc1OC | – | inactive: 0.593% |
| COc1ccc(OC)c(/C=C2\NC(=O)NC2=O)c1 | – | inactive: -4.09% |

| SMILES | Potency | activity change, negative = inhibition |
| --- | --- | --- |
| Cc1c(Cl)cccc1-c1ccc(CNCCSc2nnnn2-c2ccccc2)o1 | – | inactive: 0.418% |
| O=C(Nc1scc(-c2ccccc2)c1C(=O)O)c1ccccc1Cl | – | inactive: 13.1% |
| c1csc(-c2nn[nH]n2)c1 | – | inactive: 1.6% |
| CC1CCc2c(C(=O)Nc3ccccn3)csc2C1 (stereo unspecified) | inconclusive: 89.1 µM [inhibitor, partial curve, poor fit] | – |
| OCCN1CCN(c2ncnc3sc(-c4ccccc4)cc23)CC1 | inconclusive: 39.8 µM [inhibitor, partial curve, poor fit] | – |
| COc1ccccc1NC(=O)Cn1c(O)c(N=NC(=O)c2ccccc2O)c2ccccc21 | inconclusive: 31.6 µM [inhibitor, full curve] | – |
| CCCCn1cc(S(=O)(=O)c2ccc(C)cc2)c(=O)c2cc(F)c(N3CCCCC3)cc21 | – | inactive: 2.84% |
| COC(=O)CCSc1cc(NCCCOC(C)=O)c([N+](=O)[O-])c2nonc12 | inconclusive: 10 µM [inhibitor, full curve, poor fit] | – |
| COc1cccc(N=C2NC(=O)/C(=C/c3cc([N+](=O)[O-])ccc3O)S2)c1 | inconclusive: 17.8 µM [inhibitor, full curve] | – |
| Cc1cccc2c1c1ccc3c(c1n2C)C(=O)C=CC3=O | inconclusive: 14.1 µM [inhibitor, partial curve, poor fit] | – |
| CCC(C)Nc1nc(N)c([N+](=O)[O-])c(Nc2cc(OC)ccc2OC)n1 (stereo unspecified) | inconclusive: 79.4 µM [inhibitor, partial curve, poor fit] | – |
| Cc1ccc2c(=O)cc(C(=O)Nc3ccc(S(=O)(=O)N(C)c4ccccc4)cc3)oc2c1C | inconclusive: 89.1 µM [inhibitor, partial curve, poor fit] | – |
| CC(=O)c1cccc(NC(=O)c2cccc(N3C(=O)c4ccccc4C3=O)c2)c1 | inconclusive: 50.1 µM [inhibitor, partial curve] | – |
| COc1cc(OC)c(/C=C/c2c3ccccc3cc[n+]2C)c(OC)c1 | inconclusive: 50.1 µM [inhibitor, partial curve, poor fit] | – |
| COc1cc(C)cc(C(=O)O)c1C1=C(O)c2cccc(O)c2C(=O)C1=O | inconclusive: 50.1 µM [inhibitor, partial curve, poor fit] | – |
| COCCNC(=O)CN(Cc1ccc2c(c1)OCO2)C(=O)CCC(=O)Nc1nccs1 | – | inactive: -0.806% |
| CN(C)CCCN=c1cc(-c2ccccc2)oc2ccc(Cl)cc12 | inconclusive: 70.8 µM [inhibitor, partial curve, poor fit] | – |
| COc1cc(OC)c(OC)cc1/C=C/c1ccnc2ccccc12 | inconclusive: 79.4 µM [inhibitor, partial curve, poor fit] | – |
| COc1cc(/C=N/NC(=O)c2cc(-c3ccccc3)nc3ccccc23)cc(OC)c1O | inconclusive: 79.4 µM [inhibitor, partial curve, poor fit] | – |
| COc1ccc(Nc2ncc(C(=O)Nc3cccc(Cl)c3)c3ccccc23)cc1 | inconclusive: 31.6 µM [inhibitor, full curve] | – |

From PubChem BioAssay AID588795 (National Center for Advancing Translational Sciences (NCATS), 2011)
